Data as given in article PMC4336329 (PLoS ONE, 2015).
Hit rate of the full screen: of about 310,000 compounds, about 14,000 (4.5%) showed an effect of 50% or more. Effects have a minus sign here. Some of the results follow.

molecular target: human ether-à-go-go-related gene (hERG) potassium channel (human, UniProt Q12809); assay: primary screen, population patch clamp on CHO cells stably expressing hERG
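Note: peak tail current of the secondary pulse compared with the same well before compound.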

Chain of human ether-à-go-go-related gene (hERG) potassium channel (Q12809 whole entry, looked up): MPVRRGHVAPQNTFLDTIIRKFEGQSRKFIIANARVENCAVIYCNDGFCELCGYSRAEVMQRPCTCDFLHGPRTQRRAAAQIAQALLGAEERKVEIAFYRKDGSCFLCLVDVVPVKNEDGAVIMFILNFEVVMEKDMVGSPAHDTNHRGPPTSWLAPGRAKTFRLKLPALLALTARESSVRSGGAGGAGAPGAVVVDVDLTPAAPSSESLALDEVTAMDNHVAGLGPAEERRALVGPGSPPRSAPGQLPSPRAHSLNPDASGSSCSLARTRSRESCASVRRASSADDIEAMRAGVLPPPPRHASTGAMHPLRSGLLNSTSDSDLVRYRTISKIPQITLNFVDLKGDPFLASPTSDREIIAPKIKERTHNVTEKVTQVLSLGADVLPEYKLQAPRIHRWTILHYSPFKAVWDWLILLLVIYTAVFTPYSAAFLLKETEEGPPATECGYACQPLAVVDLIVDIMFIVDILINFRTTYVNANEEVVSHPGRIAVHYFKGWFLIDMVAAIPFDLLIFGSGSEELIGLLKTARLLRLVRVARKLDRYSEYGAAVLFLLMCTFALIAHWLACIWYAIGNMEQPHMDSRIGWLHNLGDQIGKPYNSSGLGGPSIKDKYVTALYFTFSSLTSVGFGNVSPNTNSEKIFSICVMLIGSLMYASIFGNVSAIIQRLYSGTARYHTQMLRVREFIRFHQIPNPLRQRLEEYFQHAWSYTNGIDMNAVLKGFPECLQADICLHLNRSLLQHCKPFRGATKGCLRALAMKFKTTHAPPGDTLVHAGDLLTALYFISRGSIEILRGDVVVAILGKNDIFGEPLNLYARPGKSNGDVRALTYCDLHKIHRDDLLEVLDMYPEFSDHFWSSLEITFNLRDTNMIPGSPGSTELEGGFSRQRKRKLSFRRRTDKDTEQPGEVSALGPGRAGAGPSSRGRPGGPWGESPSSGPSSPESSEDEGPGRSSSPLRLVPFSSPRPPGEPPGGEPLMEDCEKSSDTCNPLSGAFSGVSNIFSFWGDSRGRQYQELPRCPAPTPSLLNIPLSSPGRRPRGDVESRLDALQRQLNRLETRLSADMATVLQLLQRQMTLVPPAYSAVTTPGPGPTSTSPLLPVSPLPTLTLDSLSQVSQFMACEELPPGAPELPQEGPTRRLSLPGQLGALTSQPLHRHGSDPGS

Structure (SMILES) | hERG current change (%, negative = inhibition) at 10uM [%]
Cc1cccc(N2CCN(c3nc(C)cc(C)c3C#N)CC2C)c1.Cl (stereo not shown) | 14.2
Cc1cc(C)c(/C=N/n2c(C)cc(C)c(C#N)c2=O)c(C)c1 | 8.14
O=C(Nc1ccc(F)cc1)Nc1nnc(-c2ccco2)s1 | 30.4
O=[N+]([O-])c1ccc(O)c(P(=O)(c2ccccc2)c2ccccc2)c1 | 16.2
Cc1ccc(C(=O)N2CCC(C)CC2)cc1S(=O)(=O)N1CCCCC1 | -10.2
CSc1ccc(CCNC(=O)CN2C(=O)CCSc3ccccc32)cc1 | 3.31
CCC(=O)c1ccc(OCCn2cncn2)cc1 | -10.7
COc1ccc2cc(C#N)c(SCC(=O)N3CCCC3)nc2c1 | -17.9
O=C(NN=C1CCCCC1)c1ccccc1OCc1ccc(F)cc1 | 8.52
CCC(C)NC(=O)c1cc(OC)c(OC)c(OC)c1 (stereo not shown) | 6.51
COc1cccc(C(=O)NC2CCN(CC(=O)NCc3ccccc3OC)CC2)c1 | -10.7
COC(=O)Nc1ccc(=O)n(Cc2c(Cl)cccc2Cl)c1 | 3.91
O=C(NNS(=O)(=O)c1ccc2ccccc2c1)c1cccs1 | -0.742
CC1=C(C(=O)OCC2CCCO2)C(c2coc3ccc(Cl)cc3c2=O)C2=C(CCCC2=O)N1 (stereo not shown) | -16.3
CCCCOc1ccc(N2C(=O)CC(N(O)c3ccccc3)C2=O)cc1 (stereo not shown) | 11.8
CCOc1ccc(NC(=O)CSc2nc3ccccc3c(=O)n2CCCC(=O)N2CCCC2)cc1 | -23.8
O=C(NC(=S)N1CCc2ccccc21)c1ccccc1Cl | 5.67
CCOc1ccc2[nH]c(C)c(CN3CCCCC3)c(=O)c2c1 | -13.1
CC(=O)Nc1cc([As](=O)(O)O)ccc1O | 19.8
O=C(c1cc(-c2ccccc2Cl)on1)N1CCN(C(=O)c2ccco2)CC1 | -44.2

Structure (SMILES) | hERG current change (%, negative = inhibition) at 10uM [%]
O=C(NN1C(=O)/C(=C\c2ccc(O)c([N+](=O)[O-])c2)SC1=S)c1ccccc1Cl | 37
CCOC(=O)C1(CCOC)CCN(Cc2nc(-c3cccs3)oc2C)CC1 | -30.8
CCOC(=O)N1CCN(C(=O)CN(c2ccc(Oc3ccccc3)cc2)S(C)(=O)=O)CC1 | -15.4
COC(=O)c1ccc(CSc2nc3ccccc3c(=O)n2-c2ccccc2)o1 | -7.91
Cc1cc2nc3c(c(=O)n2[nH]1)CCCC3 | 12.8
O=C(Cc1ccc(Cl)c(Cl)c1)Nc1cccc(S(=O)(=O)N2CCOCC2)c1 | 3.1
Cc1nn(-c2ccccc2)c(C)c1NC(=O)COc1ccc(C#N)cc1 | -36.9
COc1cccc(/C=N/Nc2ncnc3c2ncn3Cc2ccccc2)c1O | 6
Cc1ccc(NC(=O)c2cc(S(=O)(=O)N3CCCC3)cn2C)cc1C | 8.58
Fc1ccc(C(CCNCc2cccs2)c2ccco2)cc1 (stereo not shown) | -66.8
CCOc1ccc2nc(NC(=O)Nc3cccs3)sc2c1 | 18
CC(C)n1cnc2cc(NC(=O)c3ccco3)ccc21 | -2.78
CCNc1nc(NC(C)C)nc(NS(=O)(=O)c2ccc(Cl)cc2)n1 | 14.7
O=C(Nc1ncccc1O)c1ccc(Cl)c(S(=O)(=O)N2CCCCC2)c1 | -16.1
O=C(NCC1CCCO1)c1ccc([N+](=O)[O-])o1 (stereo not shown) | 23.4
O=C(NCCc1ccccc1)c1cc2ccccc2oc1=O | 14.4
COc1cccc(/C=N/N=C(\N)c2nonc2N)c1O | 16.4
Cc1cc(N)nc(C)c1C#N | 2.13
COc1ccc(C(CC(=O)Nc2ccc(C)cc2)NC(=O)C(F)(F)F)cc1 (stereo not shown) | -4.81
CCOC(=O)/C(=C/c1ccc(OC(=O)c2ccccc2)cc1)C(C)=O | -1.74

Structure (SMILES) | hERG current change (%, negative = inhibition) at 10uM [%]
COc1ccccc1/C=N/NS(=O)(=O)c1ccccc1 | 8.76
O=C(COC(=O)c1ccncc1)c1ccccc1 | 16.2
NC(=O)C1CCN(C2=C(NS(=O)(=O)c3ccc(Br)cc3)C(=O)c3ccccc3C2=O)CC1 | -72.1
O=C(Nc1ccccc1)Nc1nnc(SCc2ccc(Cl)cc2)s1 | 18.1
Cc1cc(C)cc(C(=O)Nc2c3c(nn2C(C)(C)C)CS(=O)(=O)C3)c1 | 13.5
Cc1snc(S(=O)(=O)/C(C#N)=N/Nc2ccc(C(F)(F)F)cc2)c1C#N | 27
Cc1ccc(-c2csc3ncnc(N4CCN(C)CC4)c23)cc1C | -18.7
Cc1ccc(C)c(Oc2cc(NC(=O)CCCn3nc(C)c([N+](=O)[O-])c3C)cc([N+](=O)[O-])c2)c1 | -5.44
CC(O)CO (stereo not shown) | 17.7
COc1ccccc1NC(=O)c1ccc[n+]([O-])c1 | 18
COCCCNC(=S)NC(=O)c1ccc(C)cc1 | 7.65
CCCOc1ccc(/C=N/n2nnnc2N)cc1OC | 10.7
COc1ccc(O)c(C(c2c(C)[nH][nH]c2=O)c2c(C)[nH][nH]c2=O)c1 | -10.6
CCCn1nc(C(=O)OCC(=O)NC(C)c2ccccc2)c2ccccc2c1=O (stereo not shown) | 4.59
COC(=O)Nc1ccc(S(=O)(=O)Nc2cnc3ccccc3n2)cc1 | 28.2
COc1cc(OC)c2c(-c3ccccc3)cc(=O)oc2c1C(CCN1CCCCC1)c1ccc(N(C)C)cc1 (stereo not shown) | -25
COCCCN1CCN(c2nnc3n2-c2sc(Br)cc2C(c2ccccc2Cl)=NC3)CC1.CS(=O)(=O)O | -47.7
COC(=O)C1=C(c2ccccc2OCc2ccccc2)C[C@@H]2CC[C@H]1N2C(=O)NCc1ccc(C(F)(F)F)cc1 | -4.61
